Reference: PubChem BioAssay AID720542 (National Center for Advancing Translational Sciences (NCATS), 2013)
In all, about 360,000 compounds went through this assay and about 740 (0.21%) were called active. Inconclusive results, whose numbers are uncertain, are shown with a selection of clear calls. Calls follow the shape of the dose curve; as a rule, active = well fitted inhibition curve with a large enough effect; inconclusive = small, poorly fitted or top-dose-only effect; inactive = no such curve, though single readings can be large or run the other way. No potency is given beside an inconclusive call; the fits are too rough.

Tested on: Plasmodium falciparum AMA1 (3D7) - RON2 peptide interaction
Experiment: qHTS for Inhibitors of AMA1-RON; Towards Development of Antimalarial Drug Lead: Primary Screen; also: nearly all actives have a fitted effect of over 45% in size;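 as to activity change, negative = inhibition: 0% = vehicle wells and -100% = peptide control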
Details: AlphaScreen AMA1-biotinylated RON2 peptide binding; activity change, negative = inhibition: at 58.2 µM (top of the series) unless noted
How it was run: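 AMA1 (3D7) with his tag at 25 nM final met compounds first, then biotinylated RON2 peptide at 25 nM; detection used donor plus acceptor beads, 10 µg/mL apiece, read by AlphaScreen after 30 min at room temperature.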
Potency is read from the fitted curve at half-maximal effect; tags tell the direction and shape of the fitted curve.

SMILES	Potency	activity change, negative = inhibition
Cc1cc(=O)oc2cc(OCc3ccc(C(=O)OCC(=O)Nc4ccccc4OC(F)F)cc3)ccc12	inconclusive [inhibitor, full curve, poor fit]	–
CCCCC[C@@H](C)N1C[C@H](COCc2ccccc2)Oc2cc(N3CC[C@H](N(C)C)C3)ccc2S1(=O)=O	inconclusive [inhibitor, partial curve]	–
Cc1cccc(NCCNc2cccc(C)c2)c1	inconclusive [inhibitor, partial curve]	–
CCOC(=O)c1sc(N=NC2=C(O)CCCC2=O)c(C(=O)OCC)c1C	inconclusive [inhibitor, partial curve]	–
CCN(CC)C(=O)C1=C(C)N(Cc2ccc(F)cc2)C(=O)C(CC(=O)NCCCN(C)C)C1 (stereo not drawn)	inactive	–
CCCn1c(=O)c(C(=O)Nc2c(C)n(C)n(-c3ccccc3)c2=O)c(O)c2ccccc21	inconclusive [inhibitor, single point]	–
COc1ccc(CCNS(=O)(=O)c2ccc([N+](=O)[O-])cc2)cc1OC	inactive	–
O=C(Nc1nnc(CCN2CCOCC2)s1)C1CCCCC1	inactive	–
CC1=C/C(=N\OS(=O)(=O)c2ccccc2)C(C)=CC1=O	inconclusive [inhibitor, partial curve]	–
COc1cc(OC)cc(C(=O)N2CCN(C3CCCCC3)CC2)c1	inconclusive [inhibitor, single point]	–
Cc1onc(-c2c(Cl)cccc2Cl)c1C(=O)N1CCN(c2ccc(F)cc2)CC1	inconclusive [inhibitor, single point]	–
CCCc1cc(=O)oc2cc(C)c(CN3CCCC3)c(O)c12	inconclusive [inhibitor, partial curve]	–
O=C(CNC(=S)N(Cc1ccccc1)Cc1cccnc1)NCCc1ccccc1	inconclusive [inhibitor, partial curve]	–
O=[N+]([O-])c1ccc(/C=[N+](\[O-])[C@@H]2CCCC[C@@H]2/[N+]([O-])=C/c2ccc([N+](=O)[O-])o2)o1	inactive	–
Cc1cccc(N2CCN(C(=O)c3ccc4c(c3)c(C)c(C)n4C)CC2C)c1 (stereo not drawn)	inconclusive [inhibitor, single point]	–
O=C1C(C=NCCCN2CCOCC2)=C(O)c2ccccc21	inactive	–
COCCC(=O)N1CCC(C(=O)Nc2ccc(Oc3ccccc3)nc2)CC1	inactive	–
O=C(CNCc1ccco1)Nc1cccc(S(=O)(=O)N2CCCCC2)c1	inconclusive [inhibitor, single point]	–
CN1CCCN(Cc2ccccc2C(F)(F)F)CC1	inconclusive [inhibitor, full curve, poor fit]	–
CCOc1cc(C=NN=C2c3ccccc3-c3ccccc32)ccc1O	inconclusive [inhibitor, partial curve]	–
CN(C)CCCN(C(=O)c1ccc(S(=O)(=O)N(C)Cc2ccccc2)cc1)c1nc2cc3c(cc2s1)OCO3	inconclusive [inhibitor, partial curve]	–
CC(C)c1ccc2oc(=O)cc(CN3CCN(c4ccc(F)cc4)CC3)c2c1	inactive	–

SMILES	Potency	activity change, negative = inhibition
Cc1c(Cl)cccc1NC(=O)CSCC(N)=O	inconclusive [inhibitor, single point]	–
CC(=O)N1c2ccc(S(=O)(=O)NCC3CCC(C(=O)NC4CCCCC4)CC3)cc2CC1C (stereo not drawn)	inactive	–
COc1ccc(N2CCN(C(=O)COC(=O)c3cccc(S(=O)(=O)Nc4cccc(C)c4)c3)CC2)cc1	inconclusive [inhibitor, partial curve]	–
COc1ccc2c(c1)OC(=O)CC2c1ccccc1OC (stereo not drawn)	inactive	–
CNc1cccc(-c2ccccc2C(C)=O)n1	inactive	–
C(=C\c1ccccc1)/CN1CCN(C(CCc2ccccc2)c2nnnn2-c2ccc3c(c2)OCCO3)CC1 (stereo not drawn)	inconclusive [inhibitor, partial curve]	–
Cc1cccnc1NC(=O)c1ccc(S(=O)(=O)NCc2ccco2)cc1	inactive	–
COc1ccc(/C(C)=N/NC(=S)NCCc2ccccc2)cc1	–	inconclusive: -36.5% [inhibitor]
Cc1ccc(C(=O)/C=C/c2ccc(-c3ccccc3[N+](=O)[O-])o2)cc1	inconclusive [inhibitor, single point]	–
CC(OC(=O)c1nsc(Cl)c1Cl)C(=O)NC(C)(C)C (stereo not drawn)	inconclusive [inhibitor, full curve, poor fit]	–
OC(COC(c1ccc(Cl)cc1)c1ccc(Cl)cc1)CN1CCc2ccccc2C1 (stereo not drawn)	inconclusive [inhibitor, partial curve]	–
O=C1NC(=O)N(Cc2ccco2)C(=O)/C1=C/c1ccc(-c2cccc([N+](=O)[O-])c2)o1	inconclusive [inhibitor, single point]	–
Cc1c(Cl)ccc(S(=O)(=O)N2CCN=C2c2ccccc2)c1Cl	inconclusive [inhibitor, full curve, poor fit]	–
Cn1cccc1-c1nc2ccc([N+](=O)[O-])cc2[nH]1	inconclusive [inhibitor, partial curve]	–
Clc1ccccc1CN1CCN(CCCc2ccccc2)CC1	inconclusive [inhibitor, single point]	–
O=C(c1ccccc1)c1ccc(OCC(O)CNCc2cccc(Cl)c2)cc1 (stereo not drawn)	inconclusive [inhibitor, single point]	–
COC(=O)/C(=C\C(=O)c1ccc([N+](=O)[O-])cc1)Nc1ccc(OC)cc1	inconclusive [inhibitor, partial curve]	–
CC(Oc1ccc(Br)cc1)C(=O)Nc1cc(Cl)ccc1N1CCN(C)CC1 (stereo not drawn)	inconclusive [inhibitor, single point]	–
Oc1ccccc1-c1nnc(-c2ccc(C(F)(F)F)cc2)o1	inactive	–
NC(=O)c1ccsc1NC(=O)COC(=O)COc1ccccc1[N+](=O)[O-]	inactive	–
CCOC(=O)COc1cc(OCC(=O)OCC)c2c3c(c(=O)oc2c1)CCCC3	inactive	–
